# Assay results reported in the supplement of paper PMC12217912.
# Some of the results follow. The full chains were built here from the parent and the listed change. Values near 0.05 are background.
# B1: TEV protease; numbered along this chain (parent)
# chain: MGESLFKGPRDYNPISSSICHLTNESDGHTTSLYGIGFGPFIITNKHLFRRNNGTLVVQSLHGVFKVKDTTTLQQHLVDGRDMIIIRMPKDFPPFPQKLKFREPQREERICLVTTNFQTKSMSSMVSDTSCTFPSGDGIFWKHWIQTKDGQCGSPLVSTRDGFIVGIHSASNFTNTNNYFTSVPKNFMELLTNQEAQQWVSGWRLNADSVLWGGHKVFMVKPEEPFQPVKEATQL
# Variants of: B1
# Experiment: raw area under fraction-flipped curve 0-4 h after induction (AUC4h, not background-subtracted), DNA-recorder readout of cleavage of the substrate (dimensionless); higher = more cleavage of the substrate by the protease variant
# Conditions: temperature: 34 °C; time window: 0-4 h after rhamnose induction
# Description: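 In vivo DNA recorder in E. coli TOP10(DE3) ΔrhaA at 34 °C. Each TEVp single-site mutant (parent TEVp 0) is paired with a single-site variant of the 7-mer TEVs (canonical ENLYFQ|S). The substrate sits between flexible linkers in a Bxb1-sfGFP-TEVs-SsrA fusion, so cleavage stabilises Bxb1 and speeds flipping of a recombination array, read by NGS. The value is the raw area under the fraction-flipped curve over 0-4 h after rhamnose induction (AUC4h), with ≥20 reads per time point. It is not background-subtracted; inactive controls average about 0.047.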
# 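Also: Bxb1 expression induced with 0.2% (w/v) L-rhamnose at OD600 near 0.5, cultures sampled hourly, flipped fraction per protease–substrate barcode pair counted by paired-end Illumina sequencing.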
Variant,area with substrate ENAYFQS,area with substrate ENCYFQS,area with substrate ENDYFQS,area with substrate ENEYFQS,area with substrate ENFYFQS,area with substrate ENGYFQS,area with substrate ENHYFQS,area with substrate ENIYFQS,area with substrate ENKYFQS,area with substrate ENMYFQS,area with substrate ENNYFQS,area with substrate ENQYFQS,area with substrate ENRYFQS,area with substrate ENSYFQS,area with substrate ENTYFQS,area with substrate ENVYFQS,area with substrate ENYYFQS,area with substrate ENPYFQS,area with substrate ENWYFQS
MGESLFKGPYDYNPISSSICHLTNESDGHTTSLYGIGFGPFIITNKHLFRRNNGTLVVQSLHGVFKVKDTTTLQQHLVDGRDMIIIRMPKDFPPFPQKLKFREPQREERICLVTTNFQTKSMSSMVSDTSCTFPSGDGIFWKHWIQTKDGQCGSPLVSTRDGFIVGIHSASNFTNTNNYFTSVPKNFMELLTNQEAQQWVSGWRLNADSVLWGGHKVFMVKPEEPFQPVKEATQL [R10Y],0.0624,0.0577,0.0639,0.0574,0.06,0.0683,0.0507,0.0763,0.05,0.0824,0.0552,0.0701,0.0558,0.0592,0.062,0.0784,0.0671,,
MGESLFKGPTDYNPISSSICHLTNESDGHTTSLYGIGFGPFIITNKHLFRRNNGTLVVQSLHGVFKVKDTTTLQQHLVDGRDMIIIRMPKDFPPFPQKLKFREPQREERICLVTTNFQTKSMSSMVSDTSCTFPSGDGIFWKHWIQTKDGQCGSPLVSTRDGFIVGIHSASNFTNTNNYFTSVPKNFMELLTNQEAQQWVSGWRLNADSVLWGGHKVFMVKPEEPFQPVKEATQL [R10T],0.064,0.0601,,0.0664,0.0694,0.0682,,,0.0456,,0.0727,0.0589,0.06,0.0531,0.0695,0.0739,,,
MGESLFKGPFDYNPISSSICHLTNESDGHTTSLYGIGFGPFIITNKHLFRRNNGTLVVQSLHGVFKVKDTTTLQQHLVDGRDMIIIRMPKDFPPFPQKLKFREPQREERICLVTTNFQTKSMSSMVSDTSCTFPSGDGIFWKHWIQTKDGQCGSPLVSTRDGFIVGIHSASNFTNTNNYFTSVPKNFMELLTNQEAQQWVSGWRLNADSVLWGGHKVFMVKPEEPFQPVKEATQL [R10F],0.0635,,0.0792,0.007,0.0807,0.0646,0.0585,0.103,0.0614,0.0681,0.0733,0.0692,0.0596,0.0675,0.0485,0.0676,,0.0582,0.0598
MGESLFKGPRDYNPISSSICHLTNESDGHETSLYGIGFGPFIITNKHLFRRNNGTLVVQSLHGVFKVKDTTTLQQHLVDGRDMIIIRMPKDFPPFPQKLKFREPQREERICLVTTNFQTKSMSSMVSDTSCTFPSGDGIFWKHWIQTKDGQCGSPLVSTRDGFIVGIHSASNFTNTNNYFTSVPKNFMELLTNQEAQQWVSGWRLNADSVLWGGHKVFMVKPEEPFQPVKEATQL [T30E],0.0503,0.0291,0.056,0.0486,0.0512,,0.0587,0.109,,0.0734,0.0646,0.05,,0.0666,0.0499,0.0835,,0.0519,0.0521
MGESLFKGPRDYNPISSSICHLTNESDGHITSLYGIGFGPFIITNKHLFRRNNGTLVVQSLHGVFKVKDTTTLQQHLVDGRDMIIIRMPKDFPPFPQKLKFREPQREERICLVTTNFQTKSMSSMVSDTSCTFPSGDGIFWKHWIQTKDGQCGSPLVSTRDGFIVGIHSASNFTNTNNYFTSVPKNFMELLTNQEAQQWVSGWRLNADSVLWGGHKVFMVKPEEPFQPVKEATQL [T30I],0.0614,0.0637,0.0768,0.0497,0.0506,0.056,,,0.0546,0.0621,0.062,0.122,0.0669,0.0579,0.0733,,0.0658,0.0505,
MGESLFKGPRDYNPISTSICHLTNESDGHTTSLYGIGFGPFIITNKHLFRRNNGTLVVQSLHGVFKVKDTTTLQQHLVDGRDMIIIRMPKDFPPFPQKLKFREPQREERICLVTTNFQTKSMSSMVSDTSCTFPSGDGIFWKHWIQTKDGQCGSPLVSTRDGFIVGIHSASNFTNTNNYFTSVPKNFMELLTNQEAQQWVSGWRLNADSVLWGGHKVFMVKPEEPFQPVKEATQL [S17T],0.0661,,0.0596,0.0589,0.0641,,0.104,0.12,0.0666,0.108,0.0737,0.0634,0.0549,0.0381,0.0439,0.0842,,0.0537,
MGESLFKGPRDYNPISSSICHLTNESNGHTTSLYGIGFGPFIITNKHLFRRNNGTLVVQSLHGVFKVKDTTTLQQHLVDGRDMIIIRMPKDFPPFPQKLKFREPQREERICLVTTNFQTKSMSSMVSDTSCTFPSGDGIFWKHWIQTKDGQCGSPLVSTRDGFIVGIHSASNFTNTNNYFTSVPKNFMELLTNQEAQQWVSGWRLNADSVLWGGHKVFMVKPEEPFQPVKEATQL [D27N],0.0641,0.0742,0.0597,0.0595,,,,0.0881,,0.0591,0.0697,0.0697,0.0583,,0.0713,0.0637,,,
MGESLFKGPRDYNPISSSICHLTNESMGHTTSLYGIGFGPFIITNKHLFRRNNGTLVVQSLHGVFKVKDTTTLQQHLVDGRDMIIIRMPKDFPPFPQKLKFREPQREERICLVTTNFQTKSMSSMVSDTSCTFPSGDGIFWKHWIQTKDGQCGSPLVSTRDGFIVGIHSASNFTNTNNYFTSVPKNFMELLTNQEAQQWVSGWRLNADSVLWGGHKVFMVKPEEPFQPVKEATQL [D27M],0.0439,0.0613,,0.0566,0.0582,0.0518,0.0547,0.0773,,,0.058,0.0634,0.0715,0.0885,0.0689,0.0564,0.0665,0.0649,
MGESLFKGPRDYNPTSSSICHLTNESDGHTTSLYGIGFGPFIITNKHLFRRNNGTLVVQSLHGVFKVKDTTTLQQHLVDGRDMIIIRMPKDFPPFPQKLKFREPQREERICLVTTNFQTKSMSSMVSDTSCTFPSGDGIFWKHWIQTKDGQCGSPLVSTRDGFIVGIHSASNFTNTNNYFTSVPKNFMELLTNQEAQQWVSGWRLNADSVLWGGHKVFMVKPEEPFQPVKEATQL [I15T],0.053,0.0655,0.0597,0.0635,0.0661,0.0115,0.0597,,0.0588,,0.0547,0.0678,0.063,0.0575,0.0663,0.0663,,0.0487,
